The target of this assay is T1, Aromatase (Homo sapiens, UniProt P11511).
T1 sequence (P11511 whole entry): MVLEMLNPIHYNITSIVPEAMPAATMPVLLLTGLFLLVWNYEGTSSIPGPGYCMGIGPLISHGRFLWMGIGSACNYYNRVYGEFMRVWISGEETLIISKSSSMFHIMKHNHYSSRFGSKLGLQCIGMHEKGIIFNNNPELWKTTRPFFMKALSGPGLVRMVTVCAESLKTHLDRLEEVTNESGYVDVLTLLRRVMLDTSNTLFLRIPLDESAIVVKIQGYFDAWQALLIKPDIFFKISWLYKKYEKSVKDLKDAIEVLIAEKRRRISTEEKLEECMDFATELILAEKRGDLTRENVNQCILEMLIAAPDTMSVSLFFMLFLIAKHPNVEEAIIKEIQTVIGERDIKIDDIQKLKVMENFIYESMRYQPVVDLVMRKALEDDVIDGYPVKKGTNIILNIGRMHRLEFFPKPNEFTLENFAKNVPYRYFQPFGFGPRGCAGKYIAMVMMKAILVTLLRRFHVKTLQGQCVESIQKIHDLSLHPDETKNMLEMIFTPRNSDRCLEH
For orientation: IC50 means the midpoint of a concentration-inhibition curve. High values mean weaker potency, low ones greater potency. Regarding `O=c1cc(-c2ccccc2)oc2c1ccc1cccc(O)c12`, the IC50 stood at 0.02 µM.
`Fc1ccc(-n2cc(Cn3ccnc3)c3ccccc32)cc1`: the IC50 worked out at 0.0718 µM.
Turning to `C=C1C(=O)O[C@@H]2[C@H]3C(C)=CC(=O)C3=C(C)CC[C@@H]12` [DEHYDROLEUCODIN], the IC50 stood at 0.015 µM.
In the case of `COc1ccc(C2=C(c3ccc(OC)c(OC)c3)C(=O)OC2)cc1OC`, the IC50 came out at 0.001 µM.
On to `COc1cc(C(=O)N(C)C)cc(C=O)c1C(=O)c1c(C)cccc1O`, for which the IC50 was found to be 0.0172 µM.
`Clc1cccc(C(c2ccc3[nH]cnc3c2)n2ccnc2)c1` (centres undefined) [LIAROZOLE] registered an IC50 of 0.005 µM.
`COc1ccc(C2=C(c3ccc(OC)c(OC)c3)C(=O)OC2)cc1`: the IC50 was determined as 0.0069 µM.
For `O=c1c(-c2ccccc2)c(SCc2ccncc2)oc2cc(OCc3ccc(-c4ccccc4)cc3)ccc12` the value was 0.085 µM; for `C=C1C(=O)O[C@@H]2[C@H]3C(C)=CC[C@H]3CCC[C@@H]12` [10-EPI-8-DEOXY-CUMAMBRIN B], 0.007 µM.
The result for `COc1ccc(C2=C(c3cc(OC)c(OC)c(OC)c3)COC2=O)cc1OC` reads 0.0137 µM; that for `O=C1OC[C@H](Cc2ccccc2)[C@H]1Cc1cccc(O)c1`, 0.006 µM.
The result for `O=C1/C(=C\c2cccnc2)C(c2ccc(OC(F)(F)F)cc2)n2cccc21` (centres undefined) reads 0.04 µM.
Take `Cn1c(=O)sc2cc(C(c3ccccc3)n3ccnc3)ccc21` (centres undefined): the midpoint of inhibition, the IC50, lay at 0.013 µM.
For `CC(C)/C=C/Cc1c(O)cc(O)c2c1OC(c1ccc(O)cc1)CC2=O` (centres undefined) the value was 0.2 µM.
The molecule `O=C1OC[C@H](Cc2ccc(O)c(O)c2)[C@H]1Cc1ccc(O)c(O)c1` had a half-maximal inhibitory concentration (IC50) of 0.006 µM.
`Fc1ccc(CCCn2ccnc2)cc1` displayed an IC50 of 0.31 µM.
`COc1ccc2c(c1)C(N)=C(CC1=CCNC=C1)C2=O`: the IC50 is 0.0035 µM.
For `O=c1c(C(c2ccc([N+](=O)[O-])cc2)n2ccnc2)coc2ccccc12` (centres undefined) the value was 0.0023 µM; for `Clc1ccc(C(c2cc3ccccc3o2)n2ccnc2)cc1` (centres undefined), 0.0088 µM; for `CC1=CC[C@@H]2[C@H]1[C@H]1OC(=O)[C@@H](C)[C@@H]1CC[C@]2(C)O` [11BETA,13-DIHYDRO-10-EPI-8-DEOXYCUMAM-BRIN B], 0.002 µM.
For `Clc1ccc(COC(Cn2ccnc2)c2ccc(Cl)cc2Cl)c(Cl)c1` (centres undefined) [MICONAZOLE] the value was 0.6 µM.
The result for `CC(Cc1ccc(O)c(O)c1)C(C)Cc1ccc(O)c(O)c1` (centres undefined) [NORDIHYDROGUAIARETIC ACID] reads 0.011 µM; that for `O=c1cc(-c2ccc(O)cc2)oc2cc(O)ccc12`, 0.002 µM.
In turn, `Cc1cccc(O)c1C(=O)c1c(O)cc(C(=O)O)cc1C=O` showed an IC50 of 0.0172 µM.
In the case of `C=C1C(=O)O[C@H]2[C@H]1CCC(C)=C1C[C@H]3O[C@@]3(C)[C@@H]12` [LUDARTIN], the IC50 is 0.055 µM.
For `O=[N+]([O-])c1ccc(CCn2ccnc2)cc1` the value was 0.16 µM; for `CCn1c(C)c(C(c2ccc(F)cc2)n2ccnc2)c2ccccc21` (centres undefined), 0.032 µM; for `O=c1c(O)c(-c2ccc(O)c(O)c2)oc2cc(O)cc(O)c12` [QUERCETIN], 0.012 µM.
For `O=C1c2ccc(Oc3ccccc3)cc2OC(SCc2cccnc2)C1c1ccccc1` (centres undefined) the value was 0.21 µM.

These data come from ChEMBL document CHEMBL1157768, “Pharmacophore modeling strategies for the development of novel nonsteroidal inhibitors of human aromatase (CYP19)” (Bioorg Med Chem Lett, 2010).
